Test results as given in the antibiotic and cytotoxicity screens of Wong et al. (2023).
The list shows a part of the results.

How the values were obtained:
[1] = system: HSkMC (human skeletal muscle cells); assay: cytotoxicity call (relative viability < 0.9); conditions: 10 µM
[2] = system: HepG2; assay: cytotoxicity call (relative viability < 0.9); conditions: 10 µM
[3] = system: S. aureus RN4220; assay: growth inhibition call (relative growth <= 0.2); conditions: 50 µM

SMILES | cytotoxicity call [1] | cytotoxicity call [2] | growth inhibition call [3]
CC(=O)OC1(C(C)=O)CCC2C3C=C(Cl)C4=CC(=O)CCC4(C)C3CCC21C (stereo unspecified) | inactive | inactive | inactive
CN1CCN(C(=O)C[C@H]2C=C[C@@H](NC(=O)Cc3ccccn3)[C@@H](CO)O2)CC1 | inactive | inactive | inactive
CN1CCc2c(c3ccccc3n2Cc2ccccc2)C1 | inactive | active | inactive
COC(=O)C(CC#Cc1ccc2c(c1)[C@]1(C(=O)N2)[C@H](C(=O)N2CCc3cc(OC)c(OC)cc3C2)[C@H]2C(=O)O[C@H](c3ccccc3)[C@H](c3ccccc3)N2[C@@H]1c1ccc(O)cc1)C(=O)OC | inactive | inactive | inactive
C[C@@H]1CN([C@@H](C)CO)C(=O)c2cc(NS(=O)(=O)c3ccc(Cl)cc3)ccc2O[C@@H](C)CCCCO[C@H]1CN(C)CC1CC1 | inactive | inactive | inactive
COc1cccc(-c2cnc3c(c2)C(=O)N([C@H](C)CO)C[C@H](C)[C@H](CN(C)S(=O)(=O)c2cccs2)O3)c1 | inactive | inactive | inactive
COc1ccc(NC(=O)N(C)C[C@@H]2OCCCC[C@@H](C)Oc3ccc(NC(=O)Nc4ccc5c(c4)OCO5)cc3C(=O)N([C@H](C)CO)C[C@@H]2C)cc1 | inactive | inactive | inactive
CC(=O)c1cccc(C(F)(F)F)c1 | inactive | inactive | inactive
CC(C)NC(=O)N(C)C[C@H]1OCc2cn(nn2)CCCC(=O)N([C@H](C)CO)C[C@H]1C | inactive | inactive | inactive
C[C@@H]1CN([C@H](C)CO)C(=O)c2cc(NS(=O)(=O)c3cn(C)cn3)ccc2O[C@H]1CN(C)S(=O)(=O)c1ccccc1 | inactive | inactive | inactive
Cc1cnc(C(=O)O)c[n+]1[O-] | inactive | inactive | inactive
CC(C)(O)C#Cc1ccc([C@@H]2[C@@H](CO)N3CCCCN(S(C)(=O)=O)C[C@H]23)cc1 | inactive | inactive | inactive
COc1cccc(-c2ccc3c(c2)O[C@@H](CN(C)C(=O)C2CCOCC2)[C@@H](C)CN([C@H](C)CO)S3(=O)=O)c1 | inactive | inactive | inactive
Cc1noc(C)c1NC(=O)Nc1ccc2c(c1)C(=O)N([C@@H](C)CO)C[C@H](C)[C@@H](CN(C)Cc1ccc(Oc3ccccc3)cc1)O2 | inactive | inactive | inactive
CCc1nccn1CC(=O)N[C@H]1C[C@@H](C(=O)OC)N(C)C1 | inactive | inactive | inactive
C=CCOc1nc(NCC)nc(N(C)C)n1 | inactive | inactive | inactive
C[C@H]1CN([C@@H](C)CO)C(=O)c2cc(NC(=O)Cc3cn(C)c4ccccc34)ccc2O[C@H]1CN(C)Cc1ccc(Cl)c(Cl)c1 | inactive | inactive | inactive
C[C@H](CO)N1C[C@H](C)[C@H](CN(C)S(=O)(=O)c2ccc(-c3ccccc3)cc2)OCc2cnnn2CCCC1=O | inactive | inactive | inactive
C[C@@H]1CN([C@H](C)CO)C(=O)c2cc(NC(=O)NC3CCCCC3)ccc2O[C@@H](C)CCCCO[C@H]1CN(C)Cc1ccncc1 | inactive | inactive | inactive
C[C@@H]1CN([C@@H](C)CO)C(=O)c2cc(NC(=O)CCCCCC(=O)Nc3ccccc3N)ccc2O[C@H]1CN(C)C(=O)Nc1ccc(F)cc1 | inactive | inactive | inactive
C[C@@H]1CCCCO[C@@H](CN(C)Cc2ccccc2)[C@@H](C)CN([C@@H](C)CO)C(=O)c2cc(NC(=O)Nc3ccc(F)cc3)ccc2O1 | inactive | inactive | inactive
C[C@@H]1CCCCO[C@@H](CN(C)C(=O)Cc2ccccc2)[C@@H](C)CN([C@H](C)CO)C(=O)c2cc(NS(=O)(=O)c3ccc(Cl)cc3)ccc2O1 | inactive | inactive | inactive
C[C@H]1CCCCO[C@H](CN(C)Cc2ccc(Cl)c(Cl)c2)[C@@H](C)CN([C@@H](C)CO)C(=O)c2cc(NC(=O)NC3CCCCC3)ccc2O1 | active | inactive | inactive
C[C@@H]1CN([C@H](C)CO)C(=O)c2cccc(NC(=O)Nc3ccc(C(F)(F)F)cc3)c2O[C@@H]1CN(C)CC1CCCCC1 | active | active | active
COc1cccc(C#Cc2ccc([C@H]3[C@@H](CO)N4C(=O)CN(S(=O)(=O)c5ccccc5C)C[C@H]34)cc2)c1 | inactive | inactive | inactive
CN1CCN(C(=O)C[C@@H]2CC[C@H]3[C@@H](COc4ccc(NC(=O)C5CCCCC5)cc4C(=O)N3C)O2)CC1 | inactive | inactive | inactive
COc1ccc(S(=O)(=O)N(C)C[C@@H]2OCCCC[C@H](C)Oc3ccc(NC(=O)Nc4ccc(C(F)(F)F)cc4)cc3C(=O)N([C@@H](C)CO)C[C@@H]2C)cc1 | inactive | active | inactive
